This is an account of results in PMC7679404.

These are yes or no findings as the source states them, for the method shown. Tags and fused reporters may be left off the sequences shown.

Assay [1] deals with T1, CROWDED NUCLEI 3 (CRWN3), yeast two-hybrid fusion (Arabidopsis thaliana) (UniProt Q9CA42).
T1 sequence: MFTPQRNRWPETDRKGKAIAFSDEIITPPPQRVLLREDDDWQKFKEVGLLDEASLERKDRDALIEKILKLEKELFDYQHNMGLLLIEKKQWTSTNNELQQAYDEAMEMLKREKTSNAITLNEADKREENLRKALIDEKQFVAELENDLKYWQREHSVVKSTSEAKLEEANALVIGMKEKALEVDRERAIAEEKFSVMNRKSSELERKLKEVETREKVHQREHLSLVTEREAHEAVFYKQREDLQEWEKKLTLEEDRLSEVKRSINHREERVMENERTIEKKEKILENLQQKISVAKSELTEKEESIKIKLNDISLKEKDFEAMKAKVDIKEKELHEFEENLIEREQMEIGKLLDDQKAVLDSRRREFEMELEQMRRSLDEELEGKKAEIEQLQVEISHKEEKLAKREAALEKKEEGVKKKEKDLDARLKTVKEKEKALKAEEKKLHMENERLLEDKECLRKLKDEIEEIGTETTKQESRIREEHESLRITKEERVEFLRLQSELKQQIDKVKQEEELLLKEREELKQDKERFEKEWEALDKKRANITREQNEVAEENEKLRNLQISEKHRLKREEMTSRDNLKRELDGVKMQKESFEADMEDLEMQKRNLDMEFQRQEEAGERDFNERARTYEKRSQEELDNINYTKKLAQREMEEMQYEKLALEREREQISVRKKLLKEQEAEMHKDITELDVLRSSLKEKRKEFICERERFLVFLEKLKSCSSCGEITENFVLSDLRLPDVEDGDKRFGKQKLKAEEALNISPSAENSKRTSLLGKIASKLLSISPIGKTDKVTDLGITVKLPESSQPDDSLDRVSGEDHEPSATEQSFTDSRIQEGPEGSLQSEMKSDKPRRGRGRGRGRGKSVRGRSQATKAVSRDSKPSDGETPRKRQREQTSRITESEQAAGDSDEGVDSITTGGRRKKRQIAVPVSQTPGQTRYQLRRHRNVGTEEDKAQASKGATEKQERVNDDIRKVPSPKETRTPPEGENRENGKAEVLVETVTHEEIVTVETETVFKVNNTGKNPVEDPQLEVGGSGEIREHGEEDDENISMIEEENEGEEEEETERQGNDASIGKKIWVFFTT
Briefly: two-hybrid; CRWN1-4 in pGADT7 (prey) and pGBKT7 (bait), Y2HGold yeast; growth on SD/-Leu/-Trp/-His.

In assay [2] the target is T2, CROWDED NUCLEI 2 (CRWN2), yeast two-hybrid fusion (Arabidopsis thaliana) (UniProt Q9SAF6).
T2 sequence: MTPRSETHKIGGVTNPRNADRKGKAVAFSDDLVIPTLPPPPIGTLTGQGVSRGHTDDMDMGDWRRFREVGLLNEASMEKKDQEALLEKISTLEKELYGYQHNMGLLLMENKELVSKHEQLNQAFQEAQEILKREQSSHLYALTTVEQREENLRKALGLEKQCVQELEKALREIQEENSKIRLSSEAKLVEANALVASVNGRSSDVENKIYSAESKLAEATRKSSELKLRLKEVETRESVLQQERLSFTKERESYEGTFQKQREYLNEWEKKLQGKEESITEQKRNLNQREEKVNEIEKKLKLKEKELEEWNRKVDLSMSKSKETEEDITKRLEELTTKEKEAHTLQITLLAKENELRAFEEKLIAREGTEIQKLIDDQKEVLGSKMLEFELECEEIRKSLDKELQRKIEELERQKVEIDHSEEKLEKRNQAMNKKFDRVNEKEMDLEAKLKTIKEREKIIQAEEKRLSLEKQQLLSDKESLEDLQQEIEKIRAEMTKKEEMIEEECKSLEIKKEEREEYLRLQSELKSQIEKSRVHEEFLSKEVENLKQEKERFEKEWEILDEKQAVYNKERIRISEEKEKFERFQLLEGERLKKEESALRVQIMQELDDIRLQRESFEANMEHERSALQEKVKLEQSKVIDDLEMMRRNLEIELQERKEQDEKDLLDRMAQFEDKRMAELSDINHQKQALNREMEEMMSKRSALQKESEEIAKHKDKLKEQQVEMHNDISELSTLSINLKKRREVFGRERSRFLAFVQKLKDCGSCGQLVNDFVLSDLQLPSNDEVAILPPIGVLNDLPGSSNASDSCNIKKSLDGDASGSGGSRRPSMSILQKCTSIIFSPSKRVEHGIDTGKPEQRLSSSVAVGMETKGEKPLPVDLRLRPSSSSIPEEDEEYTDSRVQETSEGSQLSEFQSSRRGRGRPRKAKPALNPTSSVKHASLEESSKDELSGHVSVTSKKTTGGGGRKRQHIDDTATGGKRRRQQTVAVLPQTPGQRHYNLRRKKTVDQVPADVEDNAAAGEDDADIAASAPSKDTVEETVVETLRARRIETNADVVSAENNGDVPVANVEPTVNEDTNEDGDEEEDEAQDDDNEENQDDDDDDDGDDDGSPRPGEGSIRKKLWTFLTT
The description is as above.

B1: CROWDED NUCLEI 4 (CRWN4), yeast two-hybrid fusion (protein, UniProt Q9FLH0 1-1010)
chain: MATSSRSERFPITPSTAATNRLTITPNSRVLKSPLTEEIMWKRLKDAGFDEQSIKNRDKAALIAYIAKLESEVYDYQHNMGLLLLEKNELSSQYEEIKASVDESDLTHMREKSAYVSALAEAKKREESLKKDVGIAKECISSLEKTLHEMRAECAETKVSAGSTMSEAHVMIEDALKKLADAEAKMRAAEALQAEANRYHRIAERKLKEVESREDDLTRRLASFKSECETKENEMVIERQTLNERRKSLQQEHERLLDAQVSLNQREDHIFARSQELAELEKGLDTAKTTFEEERKAFEDKKSNLEIALALCAKREEAVSERESSLLKKEQELLVAEEKIASKESELIQNVLANQEVILRKRKSDVEAELECKSKSVEVEIESKRRAWELREVDIKQREDLVGEKEHDLEVQSRALAEKEKDITEKSFNLDEKEKNLVATEEDINRKTTMLEDEKERLRKLDLELQQSLTSLEDKRKRVDSATQKLEALKSETSELSTLEMKLKEELDDLRAQKLEMLAEADRLKVEKAKFEAEWEHIDVKREELRKEAEYITRQREAFSMYLKDERDNIKEERDALRNQHKNDVESLNREREEFMNKMVEEHSEWLSKIQRERADFLLGIEMQKRELEYCIENKREELENSSRDREKAFEQEKKLEEERIQSLKEMAEKELEHVQVELKRLDAERLEIKLDRERREREWAELKDSVEELKVQREKLETQRHMLRAERDEIRHEIEELKKLENLKVALDDMSMAKMQLSNLERSWEKVSALKQKVVSRDDELDLQNGVSTVSNSEDGYNSSMERQNGLTPSSATPFSWIKRCTNLIFKTSPEKSTLMHHYEEEGGVPSEKLKLESSRREEKAYTEGLSIAVERLEAGRKRRGNTSGDETSEPSNNKKRKHDVTQKYSDEADTQSVISSPQNVPEDKHELPSSQTQTPSGMVVISETVKITRVTCETEVTNKVTTLDCSESPSEAGRKMGEETEDGDCNQTGINASETVIHNEAATEDICT
Take B1: the binding result in assay [1] and in assay [2] was “no binding” in each case.
